# Data: the supplement of paper PMC3334620
# Over roughly 33,000 sequences, “E-score (-0.5 to 0.5)” has its median near -0.056; the highest 2% begin near 0.38. The list shows a part of the results.
# Molecular target: Stb4 (UniProt P50104)
# Experiment: PBM E-score (8-mer binding enrichment) (E-score (-0.5 to 0.5)); higher = stronger / more preferred TF binding; most listed sequences are background and not binding sites
# Conditions: protein concentration: 200 nM; construct: GST-DNA-binding domain
# Outline: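 Masliner-normalised scans of fluorescent anti-GST signal were the basis for scoring. That signal came from GST-tagged yeast transcription factors applied at about 100-200 nM to double-stranded universal all-10-mer Agilent arrays on fresh or once-stripped slides. Each ungapped eight-base word, pooled with its reverse complement, received an E-score from the Universal PBM Analysis Suite.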
row,Sequence,PBM E-score
1,GGAATTAA,0.194
2,CCATGAGC,-0.171
3,ATGTGTTG,-0.137
4,CTCCGAAC,0.427
5,ATAGCGAG,-0.123
6,GACAGGGC,-0.122
7,GACTGGGA,-0.0314
8,ACTCAGCA,-0.084
9,AGGTCAAA,-0.231
10,CTCGTCGC,-0.116
11,CTCCCAAC,-0.0824
12,ACCTGTGC,-0.211
13,GGTTGCTA,0.0181
14,CGAGTGAG,0.157
15,GTCTTCGA,-0.232
16,AAGAGTGA,-0.237
17,TCTCCAGA,-0.0837
18,CTACCAAA,0.0172
19,AGAACACT,0.0948
20,GCGTCATA,-0.0552
21,GATTGCGC,-0.00733
22,TCAGTCAA,-0.147
23,CGCGGAAC,0.395
24,ACAGCCAA,-0.135
25,GGCGACAA,-0.0824

row,Sequence,PBM E-score
1,CAGGGCGC,-0.175
2,AGTGTAAG,-0.191
3,CCCTAAGG,-0.232
4,ACAAGGGC,-0.0269
5,AGCGGAGA,0.0304
6,ACTATATC,-0.137
7,GTCGGATA,0.463
8,ATGGAGAG,-0.252
9,CGAGGCCA,0.0718
10,CATAGCTA,-0.0675
11,AATCTCCT,-0.0714
12,AGGCGACG,-0.0581
13,GGGGACCC,-0.0645
14,CCCGTGAC,0.211
15,GTACAAAA,-0.165
16,TACCCCGA,0.342
17,ACTCAAGG,-0.0695
18,CAACGTTC,0.0557
19,ATTTCACC,-0.0142
20,AGGTTGGA,0.0581
21,CTTTCCTA,-0.134
22,ATCGTGTG,0.00933
23,CTGTTGAA,-0.00908
24,ATTTTGGC,0.0403
25,ACAGGCCA,-0.0282

row,Sequence,PBM E-score
1,ACTGGTTA,-0.0984
2,ACTTTAAC,-0.0859
3,CAGTTGTA,-0.156
4,CGTCAATC,-0.141
5,ATATCCCA,0.235
6,AGAAGTAG,-0.314
7,CTGGTGTA,-0.169
8,CCATCTCG,0.228
9,ACGATTGG,-0.176
10,ATGCCTTC,-0.0568
11,AGGGAGCG,-0.163
12,AGCGGTTA,0.0198
13,ATATTCAT,-0.224
14,CATACCGG,0.146
15,CCGTTGAC,0.00559
16,ACCGTCTC,-0.0425
17,ACACCTAC,-0.0226
18,ATCAAGGA,-0.368
19,ACCGACCA,0.141
20,AAAGATCA,-0.118
21,ATGTAAAA,-0.18
22,CCTTTCCC,0.222
23,AACCATCA,0.054
24,ATTCATAC,0.0839
25,CTAAAAAA,0.124

row,Sequence,PBM E-score
1,ATGCAAAT,-0.115
2,ATGAGTGC,-0.0135
3,GATTTTAA,0.152
4,ACAACAGG,-0.116
5,AAAATCAG,-0.00881
6,ATGGATTG,-0.00783
7,CTCTTATC,-0.024
8,CTTATCAA,-0.188
9,CAAGGTAA,-0.0482
10,AGTACTAC,-0.177
11,GCTCTACA,-0.12
12,GGCTGGCA,-0.209
13,AGAGAAGC,-0.039
14,AAAGTTCG,0.209
15,CGAACCAA,0.0796
16,GGACTTAA,0.086
17,CCCGCGAG,0.141
18,AAAATCAC,-0.0706
19,AGTCAAGA,-0.145
20,AAGGTGAA,0.00295
21,GTAGAAAC,0.0749
22,AAAATTTT,0.231
23,ATTTGCTA,-0.168
24,AACCGTAG,-0.0947
25,CGCTCAAG,-0.152

row,Sequence,PBM E-score
1,TCCCAACA,-0.0766
2,CCTCAACA,-0.119
3,ACCCAGTC,-0.0444
4,CGAAGCAA,-0.00587
5,CAGTTCCA,-0.0647
6,CACACTGC,-0.113
7,AGTCCTAT,-0.12
8,CGTCCCTC,-0.128
9,CCGTTTCC,0.22
10,AAGTGGCT,-0.0265
11,GCAGACTA,-0.242
12,GGGATGGA,0.0991
13,CCGAAAGC,0.377
14,TAACGTGA,-0.101
15,CATGTTCG,0.0927
16,CGAAAAAA,0.173
17,ACGCTGCG,-0.168
18,CTTACCTC,-0.00464
19,ATCCCAGC,-0.0722
20,TCAGAGGA,-0.183
21,CGCTGCAG,0.0249
22,AAGTAGTC,-0.0513
23,CAAGGCCG,0.0789
24,GATGTTAC,0.0225
25,GGCATAGA,0.0757

row,Sequence,PBM E-score
1,AGCCACTC,-0.119
2,CTTCACGC,0.0341
3,ATCCACTA,-0.0568
4,CTCCCGAA,0.43
5,CACAGTGC,0.0114
6,AACTCAGA,-0.304
7,AAAATGCA,-0.101
8,CCTTTCCG,0.381
9,GCATATCA,0.0661
10,GCCTTTCC,0.171
11,GGAAACCC,0.198
12,GCGTTAAA,-0.0629
13,AAACCAAT,0.113
14,CAGCTAAA,-0.232
15,CAACATGA,-0.00103
16,AGCAGTAT,-0.12
17,GGGGAGAC,0.00994
18,AACGTATT,-0.0995
19,ATGTGCCA,-0.134
20,AATTACAG,0.0676
21,CCTATCCC,0.176
22,CTTAAAGC,-0.0959
23,CCACTGGA,-0.0604
24,ATCCTGAG,-0.0941
25,AACGTGAT,-0.127

row,Sequence,PBM E-score
1,CCGATTGA,0.214
2,CCATGGCG,0.0404
3,CCAAAATC,-0.027
4,GCGCCACA,-0.189
5,AAATTTTA,-0.0853
6,AGACGCCC,0.0523
7,CAAGCCCA,-0.331
8,CAATCGAA,-0.0153
9,TAGAGGCA,-0.263
10,GTTTCTCA,-0.0364
11,AACTGGTG,-0.136
12,AAGCTGGA,-0.242
13,CACCATCA,-0.162
14,TAAAGGGA,-0.112
15,AGATACGG,0.194
16,AAGTCCGA,0.313
17,GATATAGC,0.144
18,AAGAGCCA,-0.0876
19,GACACATC,0.0258
20,CCTTTTAA,-0.0164
21,CTGCGATA,-0.134
22,ATCCAATG,-0.248
